Measurements as given in PMC5679390.
These are yes or no findings as the source states them, for the method shown. Binding seen in cells or lysates may run through a third protein. Some entries that bind do so weakly or less than the wild type. For some assays here: Where a sequence is shown, tags or fusion partners need not be part of it.

The chains behind the UniProt entries cited, without tags or fusion partners. Where a name states a change or a piece, a line headed by the entry shows the natural chain unless it says otherwise.
UniProt Q8GXX0: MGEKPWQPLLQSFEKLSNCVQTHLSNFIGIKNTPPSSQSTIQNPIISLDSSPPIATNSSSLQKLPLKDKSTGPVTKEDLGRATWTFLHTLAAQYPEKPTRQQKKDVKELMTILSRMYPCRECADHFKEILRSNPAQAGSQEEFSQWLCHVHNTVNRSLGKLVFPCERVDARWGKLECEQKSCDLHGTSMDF

Legend:
[1] = molecular target: T1, yeast Mia40 (S. cerevisiae (endogenous in yeast mitochondria)) (UniProt P36046); experiment: cross-linking + co-IP; mitochondria of the AtErv1-expressing Δerv1 strain treated with 1 mM cleavable cross-linker dithiobis succinimidyl propionate for 15 min at 25 °C, lysed with 1% SDS; immunoprecipitation with Mia40-specific antibodies or pre-immune serum; HA-tagged AtErv1 seen by western blotting
T1 sequence: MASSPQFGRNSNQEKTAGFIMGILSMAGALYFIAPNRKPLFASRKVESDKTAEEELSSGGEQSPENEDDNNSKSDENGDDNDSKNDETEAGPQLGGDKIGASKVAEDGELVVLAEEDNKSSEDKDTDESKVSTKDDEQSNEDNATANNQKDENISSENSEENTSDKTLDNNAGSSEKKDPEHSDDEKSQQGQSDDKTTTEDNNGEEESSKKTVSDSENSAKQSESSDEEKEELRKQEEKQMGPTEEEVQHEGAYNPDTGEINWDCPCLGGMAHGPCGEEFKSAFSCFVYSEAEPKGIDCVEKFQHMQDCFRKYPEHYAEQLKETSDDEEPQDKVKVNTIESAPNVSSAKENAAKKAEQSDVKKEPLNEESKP

[2] = molecular target: T2, Arabidopsis thaliana Erv1 fused to the IMS-targeting sequence of cytochrome b2 followed by a hemagglutinin tag (not stated | Arabidopsis thaliana) (UniProt P00175+Q8GXX0); experiment: co-IP; radiolabeled Mia40 incubated for 2 min with isolated erv1-ts mitochondria containing or lacking HA-tagged AtErv1; lysed with 1% SDS; immunoprecipitation with HA-specific antibodies or pre-immune serum; disulfide bonds reduced with DTT when indicated; autoradiography
T2 sequence: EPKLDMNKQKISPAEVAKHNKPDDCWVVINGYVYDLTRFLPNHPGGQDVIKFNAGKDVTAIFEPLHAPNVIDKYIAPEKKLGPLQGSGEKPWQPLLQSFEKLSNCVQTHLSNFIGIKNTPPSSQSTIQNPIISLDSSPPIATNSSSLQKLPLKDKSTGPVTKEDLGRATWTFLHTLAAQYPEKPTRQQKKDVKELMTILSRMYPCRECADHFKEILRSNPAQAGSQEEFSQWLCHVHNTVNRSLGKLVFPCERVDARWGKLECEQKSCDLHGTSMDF

[3] = molecular target: T2, Arabidopsis thaliana Erv1 fused to the IMS-targeting sequence of cytochrome b2 followed by a hemagglutinin tag (not stated | Arabidopsis thaliana); experiment: cross-linking + co-IP; radiolabeled CCMH incubated for 2 min with mitochondria of the AtErv1-expressing Δerv1 strain; 400 μM dithiobis succinimidyl propionate for 5 min at 25 °C, lysed with 1% SDS; immunoprecipitation with Erv1- and HA-specific antibodies (Fig. 5a) or Mia40-specific antibodies (Figure S5) or pre-immune serum; cross-linker cleaved with DTT when indicated; autoradiography
[4] = molecular target: T1, yeast Mia40 (S. cerevisiae (endogenous in yeast mitochondria)); experiment: as above
[5] = molecular target: T2, Arabidopsis thaliana Erv1 fused to the IMS-targeting sequence of cytochrome b2 followed by a hemagglutinin tag (not stated | Arabidopsis thaliana); experiment: cross-linking + co-IP; radiolabeled Tim9 or Tim17 incubated for 2 min with Δerv1 mitochondria containing ScErv1 or AtErv1; 400 μM dithiobis succinimidyl propionate for 5 min at 25 °C, NEM-containing buffer for 20 min on ice, lysed with 1% SDS; immunoprecipitation with Erv1-specific antibodies or pre-immune serum; disulfide bonds reduced with DTT; autoradiography
[6] = molecular target: T3, yeast Erv1 (yeast (S. cerevisiae)) (UniProt P27882); experiment: as above
T3 sequence: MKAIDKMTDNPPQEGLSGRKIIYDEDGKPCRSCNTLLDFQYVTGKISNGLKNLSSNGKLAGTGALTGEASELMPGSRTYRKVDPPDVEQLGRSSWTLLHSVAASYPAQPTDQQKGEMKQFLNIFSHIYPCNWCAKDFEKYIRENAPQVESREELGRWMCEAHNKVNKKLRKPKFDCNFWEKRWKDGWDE

B1: Arabidopsis thaliana Erv1 fused to the IMS-targeting sequence of cytochrome b2 followed by a hemagglutinin tag (enzyme, UniProt P00175 81-167; Q8GXX0 2-191)
chain: EPKLDMNKQKISPAEVAKHNKPDDCWVVINGYVYDLTRFLPNHPGGQDVIKFNAGKDVTAIFEPLHAPNVIDKYIAPEKKLGPLQGSGEKPWQPLLQSFEKLSNCVQTHLSNFIGIKNTPPSSQSTIQNPIISLDSSPPIATNSSSLQKLPLKDKSTGPVTKEDLGRATWTFLHTLAAQYPEKPTRQQKKDVKELMTILSRMYPCRECADHFKEILRSNPAQAGSQEEFSQWLCHVHNTVNRSLGKLVFPCERVDARWGKLECEQKSCDLHGTSMDF
binding [1]: binds

B2: radiolabeled Mia40 (protein, UniProt P36046 1-403)
chain: MLRNLVVRNACRNRPSIQVARGLCRHQTRRLMASSPQFGRNSNQEKTAGFIMGILSMAGALYFIAPNRKPLFASRKVESDKTAEEELSSGGEQSPENEDDNNSKSDENGDDNDSKNDETEAGPQLGGDKIGASKVAEDGELVVLAEEDNKSSEDKDTDESKVSTKDDEQSNEDNATANNQKDENISSENSEENTSDKTLDNNAGSSEKKDPEHSDDEKSQQGQSDDKTTTEDNNGEEESSKKTVSDSENSAKQSESSDEEKEELRKQEEKQMGPTEEEVQHEGAYNPDTGEINWDCPCLGGMAHGPCGEEFKSAFSCFVYSEAEPKGIDCVEKFQHMQDCFRKYPEHYAEQLKETSDDEEPQDKVKVNTIESAPNVSSAKENAAKKAEQSDVKKEPLNEESKP
modifications: radiolabeled
binding [2]: binds

B3: Arabidopsis thaliana CCMH (protein, UniProt Q9XI46 1-159)
chain: MEKTDEERKKAQMLDARARNISHNVRCTECGSQSIEDSQADIAILLRQLIRNEIGAGKTDKEIYSKLEDEFGETVLYAPKFDLQTAALWLTPVIIAGGTAAGIVYQKHRLRKNVDIMALNLIRGVPLTPKERVTILDVLIPPSPPPQGVVSRLRRWLNR
modifications: radiolabeled
binding [3]: binds
binding [4]: no binding

B4: Tim9 (protein, UniProt O74700 1-87)
chain: MDALNSKEQQEFQKVVEQKQMKDFMRLYSNLVERCFTDCVNDFTTSKLTNKEQTCIMKCSEKFLKHSERVGQRFQEQNAALGQGLGR
modifications: radiolabeled
binding [5]: binds
binding [6]: binds weakly

B5: Tim17 (protein, UniProt P39515 1-158)
chain: MSADHSRDPCPIVILNDFGGAFAMGAIGGVVWHGIKGFRNSPLGERGSGAMSAIKARAPVLGGNFGVWGGLFSTFDCAVKAVRKREDPWNAIIAGFFTGGALAVRGGWRHTRNSSITCACLLGVIEGVGLMFQRYAAWQAKPMAPPLPEAPSSQPLQA
modifications: radiolabeled
binding [5]: binds
binding [6]: binds weakly
